Source: PubChem BioAssay AID1745853 (National Center for Advancing Translational Sciences (NCATS), 2022)
Where “and” joins values, the source holds several entries; their conditions need not be identical. Equal entries are not always repeated. The list shows a part of the results. The main result of the screen is listed elsewhere. These columns were measured beside it and carry no call.

Legend:
Experiment in all cases: Primary Screen for Target Class Profiling of Small Molecule Inhibitors of Methyltransferases
[1] = target: Glycine N-methyltransferase (Homo sapiens) (UniProt Q14749); settings: purified enzyme, MTase-Glo SAH luminescence; measured here: GNMT inhibition; at 40 µM; stronger effect = lower value
Summary of the method: (§1)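 Each enzyme was reacted with SAM and its substrate, with compounds tested once at 40 uM; SAH formed was read by MTase-Glo luminescence.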

[2] = target: Guanidinoacetate N-methyltransferase (Homo sapiens) (UniProt Q14353); settings: purified enzyme, MTase-Glo SAH luminescence; measured here: GAMT inhibition; at 40 µM; stronger effect = lower value
Summary of the method: as §1

[3] = target: Histamine N-methyltransferase (Homo sapiens) (UniProt P50135); settings: purified enzyme, MTase-Glo SAH luminescence; measured here: HNMT inhibition; at 40 µM; stronger effect = lower value
Summary of the method: as §1

[4] = target: Nicotinamide N-methyltransferase (Homo sapiens) (UniProt P40261); settings: purified enzyme, MTase-Glo SAH luminescence; measured here: NNMT inhibition; at 40 µM; stronger effect = lower value
Summary of the method: as §1

[5] = target: Phenylethanolamine N-methyltransferase (Homo sapiens) (UniProt P11086); settings: purified enzyme, MTase-Glo SAH luminescence; measured here: PNMT inhibition; at 40 µM; stronger effect = lower value
Summary of the method: as §1
% is set by controls: 0 for no effect and ±100 for the full control effect.

SMILES	activity change, negative = inhibition [1]	activity change, negative = inhibition [2] [%]	activity change, negative = inhibition [3] [%]	activity change, negative = inhibition [4]	activity change, negative = inhibition [5] [%]
COc1cc(O)c2c(c1)C1(OC2=O)C(C)=CC(=O)C1O (stereo not given)	1.77%	7.07	9.81	-5.41%	4.04
CC1=C(CC(=O)O)c2cc(F)ccc2/C1=C\c1ccc(S(C)(=O)=O)cc1	-12.1%	2.1	-1.94	-9.56%	1.67
Cc1ccc(Cn2c(=O)c3ccccc3n3c(CCC(=O)N4CCN(c5ncccn5)CC4)nnc23)cc1	-8.47%	2.21	-1.6	-3.1%	-4.93
Cc1cccc(OCC(=O)N2CCC[C@H]2c2nc(-c3ccc(F)cc3)n[nH]2)c1	-4.17%	-3.59	-1.67	-8.44%	0.944
CC(C)N(CCCNC(=O)Nc1ccc(C(C)(C)C)cc1)C[C@H]1O[C@@H](n2cc(Br)c3c(N)ncnc32)[C@H](O)[C@@H]1O	-91% and -76.1%	-57.6	-83.3	-185% and -81.9%	-94.5
COc1ccc(-c2csc(NC(=O)[C@H]3CCCCN3S(=O)(=O)c3ccc(C)cc3)n2)cc1	5.19%	-20.7	3.42	-34.4%	-10.8
CN1C(=O)c2cc(C(=O)NC3CCCCCC3)nn2CC1(C)C(=O)NCc1ccc(F)cc1 (stereo not given)	6.33%	0	5.19	6.43%	1.97
COCC(=O)N[C@@H]1CN(Cc2cccn2C)C[C@H]1CO	-3.48%	-1.95	0.987	-0.135%	-4.64
CC1(C(=O)NC2CCCCC2)Cn2c(ccc2-c2ccco2)C(=O)N1Cc1ccc(Cl)cc1 (stereo not given)	-10.8%	-0.204	4.53	-11.8%	-5.29
CCOc1ccccc1N1CCN(Cc2ccc(=O)n(CC)c2)CC1	-1.55%	0.82	1.03	-4.15%	9.08
O=C([C@@H]1C[C@H](F)CN1C(=O)NC1CCCCC1)N1CCc2ccccc2C1	-6.95%	-5.44	0.071	-12.2%	-9.81
CN1C(=O)C(c2ccccc2)CC12CCN(S(=O)(=O)N(C)C)CC2 (stereo not given)	-5.12%	-5.71	-1.78	-8.6%	1.13
COc1ccc(CCNC(=O)CCc2nnc3n(CCCOC(C)C)c(=O)c4ccccc4n23)cc1OC	-5.28%	-1.99	3.7	-1.83%	-8.06
COc1ccc(CCNC(=O)c2cc3n(n2)CC(C)(C(=O)NC2CCCC2)N(C)C3=O)cc1OC (stereo not given)	3.25%	0.482	0.59	2.75%	3.94
CC(C)Cn1c(=O)c2ccc(C(=O)NC(C)C)cc2n2c(=O)n(CC(=O)c3cccc(Cl)c3)nc12	4.02%	1.42	6.03	0.344%	2.55
Cc1cc(NS(=O)(=O)c2ccc3[nH]c(=O)[nH]c3c2)ccc1Br	6.17%	0	13.1	-2.6%	-42.3
CC1(C(=O)NC2CCCCCC2)Cn2c(cc3sccc32)C(=O)N1Cc1ccc(Cl)cc1 (stereo not given)	-7.14%	4.99	-5.11	-5.54%	-7.35
O=C(Nc1ccccc1)N[C@H]1[C@H](O)[C@@H](N2CCCCC2)[C@@H]2OC[C@H]1O2	-0.315%	-0.339	1.44	0.107%	-9.41
COC[C@H]1C[C@@H](NC(=O)c2cc(C)oc2C(F)(F)F)[C@H](O)[C@@H]1O	-1.48%	1.24	-9.22	-1.94%	10.6
C[C@H]1CCCN1C(=O)c1nnc(COc2ccc(F)c(F)c2)n1-c1cccnc1	-3.87%	-1.97	-0.003	-10.2%	-0.688
NC(=NCCCCCCN=C(N)/N=C(\N)Nc1ccc(Cl)cc1)/N=C(\N)Nc1ccc(Cl)cc1	-32%	9.54	-93.2	-63.3%	-65.7
CC(C)[C@H]1CC[C@@]2(O)COC(=O)[C@H]2[C@@H]1/C=C(\CO)C(=O)O	2.4%	1.24	7.07	-11.6%	-6.68
CN(C)S(=O)(=O)N1[C@@H]2CC[C@H]1CC(NC(=O)c1ccc(F)cc1)C2 (stereo not given in full)	0.655%	0.69	4.19	1.9%	-7.22
O=C(O)CCc1cccc(O[C@@H]2O[C@H](CO)[C@@H](O)[C@H](O)[C@H]2O)c1O	3.72%	2.35	12.1	-6.07%	3.28
CC(C)(C)C(=O)C(Oc1ccc(Cl)cc1)n1ccnc1 (stereo not given)	2.38%	-1.72	0.318	-13.5%	-4.82
O=C1c2cc3occc3n2CC(C(=O)NC2CCCCCCC2)(c2ccccc2)N1Cc1ccc(Cl)cc1 (stereo not given)	3.3%	0	4.52	4.07%	-2.08
O=C(CCc1nnc2n(CCc3ccccc3)c(=O)c3ccccc3n12)NCCCN1CCCCC1	-6.02%	4.87	-60.3	4.12%	-2.18
CC1(C(=O)NC2CCCCC2)Cn2c(cc3occc32)C(=O)N1CCc1ccccc1 (stereo not given)	-10.6%	1.44	-7.34	-4.43%	-8.12
CCOC(=O)c1cc2n(n1)CC(C)(C(=O)NCc1ccc(C)cc1)N(c1cccc(F)c1)C2=O (stereo not given)	-2.1%	7.04	1.06	-4.1%	-2.95
